Target: the molecule itself
Assay: ITC

B1: human BECN1 CCD ([…]) with a C-terminal His6-tag (domain or fragment)
chain: not shown
For B1, the Kd was 48.3 ± 13.5 µM and the dH was 38.5 ± 25.1 kcal/mol.
